# From PubChem BioAssay (NCI)
#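 1) Cells in 96-well plates. 2) Compound, 48 h, 5 concentrations. 3) Linear interpolation between surrounding doses. 4) Unreached endpoint = highest concentration. Definition used: TGI = concentration required for complete inhibition of growth.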 The source holds more than one record for some entries. The list is limited to them. The source may hold further records. A record mostly stands for its own series of concentrations, which the source does not state; a value can be the end of its range.
# Columns and labels:
# Assay in all cases: NCI-60 cell line screen, 48 h
# KM12 colon = test system: KM12 colon
# HT29 colon = test system: HT29 colon
# MOLT-4 leukemia = test system: MOLT-4 leukemia
# HCT-15 colon = test system: HCT-15 colon
# M19-MEL melanoma = test system: M19-MEL melanoma
# OVCAR-3 ovarian = test system: OVCAR-3 ovarian
# SR leukemia = test system: SR leukemia
smiles,measurement,setting,value
C/C1=C\[C@@H](O)C(=O)/C=C/C=C\c2csc(n2)[C@@H](C)NC(=O)C[C@@]2(CC1)S(=O)SC(=O)[C@]2(C)O (some centres not stated),TGI,KM12 colon,206 nM and 14.6 nM
same,TGI,HT29 colon,575 nM and 25.4 nM
same,TGI,MOLT-4 leukemia,515 nM and > 100 µM
same,TGI,HCT-15 colon,96.4 nM and 10.1 µM
same,TGI,M19-MEL melanoma,155 nM and 12.1 nM
same,TGI,OVCAR-3 ovarian,59.2 nM and 11.1 µM
same,TGI,SR leukemia,336 nM and > 100 µM
